Experimental data reported in the supplement of paper PMC4967469.
IC50 is the fitted dose that halves viability relative to control wells, and lower means more sensitive; a fit beyond the top or the lowest dose is shown as a bound at that dose. AUC sums up the same curve from the lowest dose to the 256-fold higher top dose: 1 means no effect, lower means more sensitive. For some assays here: Any top dose called inferred is not printed in the source and was worked back from the curve model. For some assays here: An entry number marks a drug with two screens in the source, which often give different values.

Key:
Experiment in all cases: Viability of human cancer cell lines after 72 h of drug (GDSC screen)
LAQ824 = compound: O=C(/C=C/c1ccc(CN(CCO)CCc2c[nH]c3ccccc23)cc1)NO [LAQ824]; conditions: top dose 1.024 µM; top dose inferred
Description: (§1)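 Human cancer cell lines in 384-well plates, medium with 10% serum, drug for 72 h over a 256-fold dose range (nine 2-fold or five 4-fold steps up to the top dose). Adherent lines were fixed and stained with the nucleic acid dye Syto60, suspension lines read with resazurin; signal relative to control wells, capped at 0 and 100%. One two-parameter sigmoid per drug and line, fitted in a mixed model over all curves with the slope shared within a line.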

Tamoxifen = compound: CC/C(=C(\c1ccccc1)c1ccc(OCCN(C)C)cc1)c1ccccc1 [Tamoxifen]; conditions: top dose 5 µM
Description: as §1

Masitinib = compound: Cc1ccc(NC(=O)c2ccc(CN3CCN(C)CC3)cc2)cc1Nc1nc(-c2cccnc2)cs1 [Masitinib]; conditions: top dose 20 µM
Description: as §1

OSI-930 = compound: O=C(Nc1ccc(OC(F)(F)F)cc1)c1sccc1NCc1ccnc2ccccc12 [OSI-930]; conditions: top dose 10.24 µM
Description: as §1

Bleomycin = compound: Cc1c(N)nc([C@H](CC(N)=O)NC[C@H](N)C(N)=O)nc1C(=O)N[C@H](C(=O)N[C@H](C)[C@@H](O)[C@H](C)C(=O)N[C@H](C(=O)NCCc1nc(-c2nc(C(=O)NCCC[S+](C)C)cs2)cs1)[C@@H](C)O)[C@@H](OC1OC(CO)C(O)C(O)C1OC1OC(CO)C(O)C(OC(N)=O)C1O)c1cnc[nH]1 [Bleomycin]
Description: as §1

Elesclomol = compound: CN(NC(=O)CC(=O)NN(C)C(=S)c1ccccc1)C(=S)c1ccccc1 [Elesclomol]; conditions: top dose 0.2 µM; top dose inferred
Description: as §1

BX-912 = compound: O=C(Nc1cccc(Nc2ncc(Br)c(NCCc3cnc[nH]3)n2)c1)N1CCCC1 [BX-912]; conditions: top dose 10.24 µM; top dose inferred
Description: as §1

VNLG/124 = compound: CCCC(=O)OCc1ccc(OC(=O)/C=C(C)/C=C/C=C(C)/C=C/C2=C(C)CCCC2(C)C)cc1 [VNLG/124]; conditions: top dose 5.12 µM; top dose inferred
Description: as §1

NSC-87877 = compound: O=S(=O)(O)c1ccc2cc(N=Nc3cc(S(=O)(=O)O)c4cccnc4c3O)ccc2c1 [NSC-87877]; conditions: top dose 16 µM; top dose inferred
Description: as §1

[1] = top dose 50 µM, screen: GDSC drug entry 1378, top dose inferred
[2] = top dose 64 µM, screen: GDSC drug entry 190

| Cell Line | AUC (LAQ824) | IC50 (LAQ824) [µM] | AUC (Tamoxifen) | IC50 (Tamoxifen) [µM] | AUC (Masitinib) | IC50 (Masitinib) [µM] | AUC (OSI-930) | IC50 (OSI-930) [µM] | AUC (Bleomycin; [1]) | IC50 (Bleomycin; [1]) [µM] | AUC (Elesclomol) | IC50 (Elesclomol) [µM] | AUC (BX-912) | IC50 (BX-912) [µM] | AUC (VNLG/124) | IC50 (VNLG/124) [µM] | AUC (NSC-87877) | IC50 (NSC-87877) [µM] | AUC (Bleomycin; [2]) | IC50 (Bleomycin; [2]) [µM] |
| --- | --- | --- | --- | --- | --- | --- | --- | --- | --- | --- | --- | --- | --- | --- | --- | --- | --- | --- | --- | --- |
| NCI-H2172 (non-small cell lung carcinoma, adherent) | 0.523 | 0.0754 | 0.98 | > 5 | 0.907 | > 20 | 0.973 | > 10.2 | 0.906 | > 50 | 0.579 | 0.0222 | 0.981 | > 10.2 | 0.974 | > 5.12 | 0.983 | > 16 | – | – |
| NCI-H322M (lung adenocarcinoma, suspension) | 0.909 | > 1.02 | 0.976 | > 5 | 0.957 | > 20 | 0.985 | > 10.2 | 0.924 | > 50 | 0.964 | > 0.2 | 0.98 | > 10.2 | 0.985 | > 5.12 | 0.987 | > 16 | 0.983 | > 64 |
| CAL-39 (cervix, adherent) | 0.309 | 0.0183 | 0.98 | > 5 | 0.916 | > 20 | 0.959 | > 10.2 | 0.547 | 4.23 | 0.512 | 0.0135 | 0.973 | > 10.2 | 0.98 | > 5.12 | 0.976 | > 16 | 0.03 | < 0.25 |
| PA-TU-8988T (pancreas, adherent) | 0.569 | 0.0992 | 0.985 | > 5 | 0.968 | > 20 | 0.943 | > 10.2 | 0.155 | 0.27 | 0.276 | 0.00289 | 0.929 | > 10.2 | 0.984 | > 5.12 | 0.955 | > 16 | 0.18 | 0.435 |
| Saos-2 (osteosarcoma, adherent) | 0.626 | 0.165 | 0.941 | > 5 | 0.981 | > 20 | 0.974 | > 10.2 | 0.662 | 10.8 | 0.505 | 0.0129 | 0.981 | > 10.2 | 0.974 | > 5.12 | 0.879 | > 16 | 0.272 | 0.671 |
| SK-ES-1 (Ewing sarcoma, semi-adherent) | 0.413 | 0.0364 | 0.979 | > 5 | 0.933 | > 20 | 0.93 | > 10.2 | 0.603 | 6.13 | 0.605 | 0.0247 | 0.632 | 1.52 | 0.902 | > 5.12 | 0.984 | > 16 | 0.252 | 0.733 |
| SU-DHL-6 (B-cell lymphoma, suspension) | 0.146 | 0.00813 | 0.864 | 2.64 | 0.905 | 14.4 | 0.881 | 6.14 | 0.772 | 14.7 | 0.629 | 0.0257 | 0.449 | 0.481 | 0.974 | > 5.12 | 0.995 | > 16 | 0.29 | 1.23 |
| KYSE-520 (oesophagus, adherent) | 0.612 | 0.145 | 0.977 | > 5 | 0.916 | > 20 | 0.981 | > 10.2 | 0.538 | 4.1 | 0.79 | 0.125 | 0.918 | > 10.2 | 0.974 | > 5.12 | 0.98 | > 16 | 0.546 | 5.56 |
| BB49-HNC (head and neck, adherent) | 0.687 | 0.266 | 0.859 | > 5 | 0.975 | > 20 | 0.969 | > 10.2 | 0.462 | 2.36 | 0.825 | 0.192 | 0.948 | > 10.2 | 0.976 | > 5.12 | 0.977 | > 16 | 0.757 | 30.7 |
| SUP-M2 (anaplastic large cell lymphoma, suspension) | 0.542 | 0.0812 | 0.952 | > 5 | 0.882 | 12.8 | 0.919 | 9.05 | 0.076 | 0.21 | 0.652 | 0.0295 | 0.341 | 0.26 | 0.932 | > 5.12 | 0.986 | > 16 | 0.323 | 1.46 |
| KARPAS-422 (B-cell lymphoma, suspension) | 0.357 | 0.0259 | 0.982 | > 5 | 0.809 | 10.3 | 0.97 | > 10.2 | 0.961 | > 50 | 0.799 | 0.0947 | 0.782 | 4.22 | 0.985 | > 5.12 | 0.983 | > 16 | 0.873 | 60.3 |
| NCI-H661 (large cell lung carcinoma, adherent) | 0.458 | 0.0479 | 0.954 | > 5 | 0.869 | > 20 | 0.948 | > 10.2 | 0.459 | 2.35 | 0.352 | 0.00444 | 0.906 | > 10.2 | 0.979 | > 5.12 | 0.952 | > 16 | 0.401 | 2.02 |
| OMC-1 (cervix, adherent) | 0.479 | 0.0559 | 0.987 | > 5 | 0.941 | > 20 | 0.981 | > 10.2 | 0.86 | 44.9 | 0.766 | – | 0.942 | > 10.2 | 0.974 | > 5.12 | 0.988 | > 16 | 0.64 | 9.97 |
